The other results are listed elsewhere or left out.
B1: chr17:44253117:44253371:-|CDS|ENSG00000004939|control|control|control (ssRNA)
RNA: GGGAGUUCUACAGUCCGACGAUCCAAACCUGAGCGCAAGAUGGUCAAGGGCUCCGGCUUCCACCUGGACCUGCUGCUGGUAGUAGGCAUGGGUGGGGUGGCCGCCCUCUUUGGGAUGCCCUGGCUCAGUGCCACCACCGUGCGCAACAGAGGAUUGAGCAUCA
B2: chr1:114568131:114568247:-|CDS|ENSG00000116752|unk|total|mutant (ssRNA)
RNA: GGGAGUUCUACAGUCCGACGAUCUUCCCGUUGGGUAUCCCUGGUCAGUAAGAAUUAUGAGAUUGAACGGACUAUUGUUCAGCCCGAAAAUGAAAUCUAUCAAAUUAAGCAGCAACAUGGAGAGGCAAACAAAGAAAACAUCCGCAACAGAGGAUUGAGCAUCA
B3: chr19:4839056:4839157:-|3pUTR|ENSG00000105355|msi1|total|mutant (ssRNA)
RNA: GGGAGUUCUACAGUCCGACGAUCUCUAUAAUGCAGCUGUGCUCUGGAGUCCUCAACCCGGGGCUCAUUUCAAACUUAUUUUCCCGCCACUCCUCCCAGCUCUUCUGUGCUGUCCACUUGGGAAGCUAAGGCUCUCAAAACGGGCAACAGAGGAUUGAGCAUCA
B4: ENSG00000070961:be:win_3401|CDS|ENSG00000070961|bound_else_gene|NA|bound_elsewhere_windowed (ssRNA)
RNA: GGGAGUUCUACAGUCCGACGAUCAACCGGAAUCAAGAAGUUCGAUUCACAACUUUAUGACACAUCCUGAGUUUAGGAUAGAAGAUUCAGAGCCUCAUAUCCCCCUUAUUGAUGACACUGAUGCCGAAGAUGAUGCUCCUACAACAACAGAGGAUUGAGCAUCA
B5: chr17:55392621:55394333:-|three_prime_utr|ENSG00000108960|control|control|control (ssRNA)
RNA: GGGAGUUCUACAGUCCGACGAUCACUGUGAAAGUAUAAAGGCUGUGUUCUGGAAUUUUCUGCCUCACAGCAAAUAAAUAAGGUAGUGAAUUAAUUAUUCAUUCCAUUCCACUAUCAUGAAGGACUCUGAAUAGACUUGGCCAACAACAGAGGAUUGAGCAUCA
B6: chr15:60490033:60490134:-|3pUTR|ENSG00000069667|unk|total|mutant (ssRNA)
RNA: GGGAGUUCUACAGUCCGACGAUCUGCUGGAUUUGGGACAUGCUUUUCUCUUUAAAUACAUAAUAUCAUUAUAUAAAUUAUUCCCGAGUGUAUUUAAUCCGGAUAAAAUUACUUCCUCCGUAUGGAUAUUUGACAUCUACCGGGCAACAGAGGAUUGAGCAUCA
B7: ENSG00000135299:stop:overlap|stop_codon|ENSG00000135299|stop_codon|NA|stop_codon (ssRNA)
RNA: GGGAGUUCUACAGUCCGACGAUCACAUUAAAAGUUUAGAAGAGGAACUUGCCAAACUAAGGACUAGGGUGCAGAAGGAAAAUUAGCACCAAUAAAGAGGAAAUAUGAAAGGAUUCUUGAAGAUUUCCAGUUUUGCAACUGCAUCAACAGAGGAUUGAGCAUCA
B8: chr1:153948111:153948329:-|CDS|ENSG00000160741|control|control|control (ssRNA)
RNA: GGGAGUUCUACAGUCCGACGAUCCCUGGCCGGAGUGCCUGGCUUUGAGGUGUCAGCAGCUGGAUUGGAGCUAGGGCUUGGGCUAGAAGAUGAGCUGCGCAUGGAGCCACUGGGCCUGGAAGGGCUAAACAUGCUGAGUGACCCCAACAGAGGAUUGAGCAUCA
B9: chr5:40972473:40972581:+|CDS|ENSG00000112936|unk|total|mutant (ssRNA)
RNA: GGGAGUUCUACAGUCCGACGAUCAAAACCUUUCUACACAGUUGGUGAGAAGGUGACUGUUUCCUGUUCAGGUGGCAUGUCCUCCGAAGGUCCUUCAGCAUUUCUCUGUGGCUCCAGCCUUAAGUGGAGUCCUGAGAUGAAGAACAACAGAGGAUUGAGCAUCA
B10: chr6:105100707:105100870:-|3pUTR|ENSG00000112276|msi1|FALSE|unique (ssRNA)
RNA: GGGAGUUCUACAGUCCGACGAUCUGAGAUAUAUAUUUUCACAGUCUUUUCUAGAUAUAUUAUUGUUUUAACUUAACAAAUCUUAGCAAUCUCUCAAUGCCUUUUCACUUAUUUUUUUCCAAGUUAUGAUUCUUUUUCCUCACACAACAGAGGAUUGAGCAUCA
B11: chr11:58422334:58423261:-|CDS|ENSG00000172365|control|control|control (ssRNA)
RNA: GGGAGUUCUACAGUCCGACGAUCACACACUAGUGAGGUGAUUCUGGUUUUUAUGUCAAGCUUUAAUAUCUUUUUUGUUCUUCUAGUUAUCUUUAUCUCCUACUUGUUCAUAUUCAUCACCAUCUUGAAGAUGCAUUCAGCUAACAACAGAGGAUUGAGCAUCA
B12: chr2:27041412:27041530:+|3pUTR|ENSG00000119777|msi1_unk|FALSE|overlapping (ssRNA)
RNA: GGGAGUUCUACAGUCCGACGAUCACUUCAAAAUGCCCAGCCUGCCCCAAAUGCCUCUAAGCCCCUCCCUGUCCCCUCCCUUGUAGUCCUACUUCUUCCAACUUUCCAUUCCCCAUCAUGCUGGGGGUCUUGGUCACAAGGCUCCAACAGAGGAUUGAGCAUCA
B13: ENSG00000117906:stop:overlap|stop_codon|ENSG00000117906|stop_codon|NA|stop_codon (ssRNA)
RNA: GGGAGUUCUACAGUCCGACGAUCAGUCCUUUAGGAAGCAUCAAUGUGGAGGUUUGGGGCUCCAUCCUCAGAGCCAGUCUGCUUAGCUUCACAUUUAGCUCCAGCACUUCACGGUUGUGUAACUUUGGCUUCACUUAAAGGACACAACAGAGGAUUGAGCAUCA
B14: chr6:89794666:89794767:-|CDS|ENSG00000112159|unk|total|mutant (ssRNA)
RNA: GGGAGUUCUACAGUCCGACGAUCCCAGUCUUUCAAAGACUUUUCCCCGAGAGUUCAGAUGCUAAUCCAGUACGCUAUGGACGCCGGAGGAUGAAGCUCCGGGACCUAAUGGAAGCAGCCUUCAAGUUUCUGCAGCAGGAGCAGCAACAGAGGAUUGAGCAUCA

Target: T1, UNK ZnF1-6 (called full-length) (human, UniProt Q9C0B0 30-357)
T1 sequence: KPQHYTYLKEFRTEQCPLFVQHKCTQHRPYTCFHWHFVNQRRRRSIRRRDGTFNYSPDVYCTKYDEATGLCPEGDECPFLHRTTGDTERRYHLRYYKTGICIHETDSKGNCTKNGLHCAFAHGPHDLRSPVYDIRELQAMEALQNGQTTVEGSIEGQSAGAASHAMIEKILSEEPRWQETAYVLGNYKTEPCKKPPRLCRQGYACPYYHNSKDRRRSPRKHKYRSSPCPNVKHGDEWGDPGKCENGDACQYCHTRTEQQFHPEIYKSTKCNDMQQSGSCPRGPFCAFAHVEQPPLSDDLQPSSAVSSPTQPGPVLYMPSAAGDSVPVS
Assay: nsRBNS (natural sequence RNA bind-n-seq); RBNS binding buffer (assumed for nsRBNS): 25 mM Tris pH 7.5, 150 mM KCl, 3 mM MgCl2, 0.01% Triton X-100, 500 ug/ml BSA, 20 U/ml SUPERase-In, 4 C; UNK is unkempt and MSI1 is Musashi-1; names of the RNAs are library labels; protein concentration not given here; high values mean tight binding

| Binder | binding signal [enrichment R] |
| --- | --- |
| B1 | 0.5 |
| B2 | 0.717 |
| B3 | 0.812 |
| B4 | 0.45 |
| B5 | 0.43 |
| B6 | 1.93 |
| B7 | 0.451 |
| B8 | 0.883 |
| B9 | 0.449 |
| B10 | 18.7 |
| B11 | 12.5 |
| B12 | 1.6 |
| B13 | 0.657 |
| B14 | 0.591 |
